Measurements taken from PubChem BioAssay AID624417 (National Center for Advancing Translational Sciences (NCATS), 2012).
Hit rate of the full screen: of about 410,000 compounds, about 6,400 (1.6%) were called active. Inconclusive means that the source gave no clear call. Such entries were picked first, then a sample of the others. Calls follow the shape of the dose curve; as a rule, active = well fitted inhibition curve with a large enough effect; inconclusive = small, poorly fitted or top-dose-only effect; inactive = no such curve, though single readings can be large or run the other way. Potencies of inconclusive entries are left out as doubtful fits.
% is scaled to controls: 0 for no effect and ±100 for the full control effect; potency is read from the fitted curve at half-maximal effect; tags tell the direction and shape of the fitted curve.
Also: nearly all actives have a fitted effect of over 55% in size.

These molecules were tested against Glucagon-like peptide 1 receptor (Homo sapiens) (UniProt P43220) (assay: qHTS of GLP-1 Receptor Inverse Agonists (Inhibition Mode)). Details: HEK293 GLP-1R CRE-luciferase, luminescence, 24 h, GLP-1R form is constitutively active; activity change, negative = inhibition: at 38.3 µM (top of the series) unless noted.
Chain of UniProt P43220 (P43220 whole entry, looked up): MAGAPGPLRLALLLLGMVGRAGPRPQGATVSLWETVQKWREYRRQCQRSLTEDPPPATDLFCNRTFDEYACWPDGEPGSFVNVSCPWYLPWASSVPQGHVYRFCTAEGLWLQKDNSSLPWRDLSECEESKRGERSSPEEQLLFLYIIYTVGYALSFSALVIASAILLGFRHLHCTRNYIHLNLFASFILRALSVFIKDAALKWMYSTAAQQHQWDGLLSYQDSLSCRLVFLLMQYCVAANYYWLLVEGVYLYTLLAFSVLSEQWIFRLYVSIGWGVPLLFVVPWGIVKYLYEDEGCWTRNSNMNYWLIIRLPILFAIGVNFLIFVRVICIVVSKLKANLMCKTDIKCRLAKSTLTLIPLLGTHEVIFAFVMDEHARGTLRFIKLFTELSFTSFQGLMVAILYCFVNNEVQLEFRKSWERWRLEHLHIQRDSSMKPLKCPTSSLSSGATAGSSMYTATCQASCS
Method in brief: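 GLP-1R inverse agonism mode: basal reporter luminescence in engineered HEK293 cells measured after one day of compound exposure at 37 deg C, with a 12 min room-temperature detection step.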
With CCOc1ccccc1NC(=O)NCc1ccc(F)cc1 the Potency was inconclusive [inhibitor, single point]. For Cc1ccc(C)c(N(C(=O)Cn2nnc3ccccc32)C(C(=O)NCc2ccco2)c2ccncc2)c1 (configuration not stated), the Potency was inconclusive [inhibitor, partial curve, poor fit]. In the case of Cc1ccccc1Cn1c(SCc2ccc(C(=O)NCCc3ccccc3)cc2)nc2ccncc21, the Potency is reported as inconclusive [inhibitor, single point]. For COc1ccc(C(=O)CSc2n[nH]c(-c3ccco3)n2)cc1, the “activity change, negative = inhibition” value was inactive: 0%. CCOC(=O)C1=CCN(S(=O)(=O)c2ccc(C)cc2)C1c1cccc(C)c1 (configuration not stated) was tested, and the Potency was inconclusive [inhibitor, single point]. With O=C(NCCN1CCOCC1)c1cc2sccc2n1Cc1ccc(Cl)cc1 the Potency was inconclusive [inhibitor, single point]. With O=C(/C=C\c1ccccc1)NCC(=O)N/N=C/c1ccc(O)cc1O the Potency was inconclusive [inhibitor, single point]. For CCCCC1CCC(CCCC(C)CCC(=O)O)CC1 (configuration not stated), the “activity change, negative = inhibition” value was inactive: 15.8%. For COc1ccc(-n2cc(-c3ccc4c(c3)OCO4)n(CC(=O)Nc3cccc(C)c3)c2=O)cc1, the Potency was inconclusive [inhibitor, single point]. With N/C(Cc1ccc(Cl)cc1Cl)=N\OC(=O)Cc1cccs1 the Potency was inconclusive [inhibitor, single point]. For O=C(CN1CCN(c2cccc(Cl)c2)CC1)NC1CCCc2ccccc21 (configuration not stated), the Potency was inconclusive [inhibitor, partial curve, poor fit]. For Cc1cc(Nc2ccccc2)nc2cc(O)ccc12, the Potency was inconclusive [inhibitor, single point]. In the case of N#CCCn1cc(C=C(C#N)C#N)c(-c2ccc(-c3ccccc3)cc2)n1, the “activity change, negative = inhibition” value is reported as inactive: -27.4%. In the case of C=CCSc1nc(N(CC)CC)c2sccc2n1, the Potency is reported as inconclusive [inhibitor, single point]. COc1ccc(C(=O)Nc2nc(CC(=O)NCc3c(F)cccc3F)cs2)cc1 was tested, and the Potency was inconclusive [inhibitor, single point]. In the case of COC(=O)C1Sc2[nH]c(=O)sc2C2c3ccccc3OC(=O)C12 (configuration not stated), the “activity change, negative = inhibition” value is reported as inactive: 8.79%. For Cc1ccc(-c2ccc(=O)n(CC(=O)NCc3ccco3)n2)cc1, the “activity change, negative = inhibition” value was inactive: 0.416%. With CC1CN(C(=O)CCC(=O)NC(C)c2ccccc2)c2cc(Cl)ccc2O1 (configuration not stated) the Potency was inconclusive [inhibitor, partial curve, poor fit]. For COc1ccc(C(=O)Nc2ccc3ccccc3c2)c(OC)c1, the Potency was inconclusive [inhibitor, single point]. For CCCOc1ccc(C2NC(=S)NC(C)=C2C(=O)c2ccccc2)cc1OC (configuration not stated), the Potency was inconclusive [inhibitor, single point]. Cc1c(C(=O)N2CCN(c3ccccc3)CC2)oc2c(Cl)cccc12 was tested, and the Potency was inconclusive [inhibitor, single point]. Cc1cccc(/C=C2/S/C(=N/N=C3\CC4CCC3(C)C4(C)C)NC2=O)c1 (configuration not stated) was tested, and the Potency was inconclusive [inhibitor, full curve, poor fit]. For Cn1nc(C(F)(F)F)c(-c2ccc(Br)cc2)c1NC(=O)c1cccnc1, the Potency was inconclusive [inhibitor, partial curve, poor fit]. In the case of O=C(c1ccccc1Oc1ccccc1)N1CCN(c2ccccc2)CC1, the Potency is reported as inconclusive [inhibitor, single point]. In the case of CC(=O)Nc1ccc(C=Cc2ccc([N+](=O)[O-])cc2)cc1, the “activity change, negative = inhibition” value is reported as inactive: 9.15%. In the case of CCc1cccc(NS(=O)(=O)c2cc(-c3cnc(C)o3)ccc2OC)c1, the “activity change, negative = inhibition” value is reported as inactive: -13.4%. O=C(NC1CCC(O)CC1)c1ccc(-c2ccc(Cl)cc2)o1 (configuration not stated) was tested, and the Potency was inconclusive [inhibitor, single point]. With CCc1ccccc1NS(=O)(=O)c1cc(Br)cc2c1N(C(=O)C1CC1)CC2 the Potency was inconclusive [inhibitor, single point]. C=C(C)c1cccc(C(C)(C)NC(=O)N2CCN(C)CC2)c1 was tested, and the “activity change, negative = inhibition” value was inactive: 3.07%. Cc1ccc(S(=O)(=O)Nc2ccccc2C(=O)OC(C)C(=O)Nc2ccc3ccccc3c2)cc1[N+](=O)[O-] (configuration not stated) was tested, and the Potency was inconclusive [inhibitor, single point]. For CN(Cc1nc(C(c2ccccc2)c2ccccc2)no1)CC1COCCO1 (configuration not stated), the Potency was inconclusive [inhibitor, single point]. In the case of CC(Nc1oc(-c2ccc(COc3ccc(Cl)cc3)o2)nc1C#N)c1ccccc1 (configuration not stated), the “activity change, negative = inhibition” value is reported as inactive: -7.62%. For CCC1CCc2sc(C(=O)NCC(c3ccc(OC)cc3)N3CCOCC3)cc2C1 (configuration not stated), the Potency was inconclusive [inhibitor, single point]. In the case of COCCNC(=O)CSc1nnc2[nH]c(=O)cc(C)n12, the “activity change, negative = inhibition” value is reported as inactive: 1.27%. With Cc1ccc2c(c1)C(=O)N1[C@H]3c4cc(C)ccc4OC[C@@H]3[C@H](c3ccccc3)[C@]1(C)C(=O)N2 the Potency was inconclusive [inhibitor, full curve, poor fit]. In the case of Cc1noc(Cn2c(=O)c3ccccc3n(CC(=O)Nc3ccc(C(C)C)cc3)c2=O)n1, the “activity change, negative = inhibition” value is reported as inactive: 2.88%. With CCOc1ccc(S(=O)(=O)c2c(C(=O)c3ccccc3)cnc3cc4c(cc23)OCCO4)cc1 the Potency was inconclusive [inhibitor, single point]. CC(C)Sc1nc2sccc2c(=O)n1-c1ccccc1 was tested, and the Potency was inconclusive [inhibitor, partial curve, poor fit]. With CN(C(=O)COC(=O)COc1ccccc1F)C1CCS(=O)(=O)C1 (configuration not stated) the “activity change, negative = inhibition” value was inactive: 13.4%. In the case of CCn1cc(S(=O)(=O)c2ccc(C)cc2C)c(=O)c2cc(F)c(N3CCCCC3)cc21, the Potency is reported as inconclusive [inhibitor, partial curve, poor fit]. In the case of CCOc1ccc(NC(=O)CN2CCSc3ccc(S(=O)(=O)N4CCCC4)cc32)cc1, the Potency is reported as inconclusive [inhibitor, single point]. With CC(C)c1cc(C(N)=O)c(NC(=O)c2cccc(COc3ccc(Cl)cc3)c2)s1 the Potency was inconclusive [inhibitor, full curve, poor fit].
